This note sets out measurements from paper PMC6890249.

By UniProt entry, the sequences of proteins in these tests, tags left out. Where a name states a change or a piece, a line headed by the entry shows the natural chain unless it says otherwise. Chains listed by the source or under a name are the forms on record and can include a tag or linker. Residues count along the entry.
UniProt Q9P0L2: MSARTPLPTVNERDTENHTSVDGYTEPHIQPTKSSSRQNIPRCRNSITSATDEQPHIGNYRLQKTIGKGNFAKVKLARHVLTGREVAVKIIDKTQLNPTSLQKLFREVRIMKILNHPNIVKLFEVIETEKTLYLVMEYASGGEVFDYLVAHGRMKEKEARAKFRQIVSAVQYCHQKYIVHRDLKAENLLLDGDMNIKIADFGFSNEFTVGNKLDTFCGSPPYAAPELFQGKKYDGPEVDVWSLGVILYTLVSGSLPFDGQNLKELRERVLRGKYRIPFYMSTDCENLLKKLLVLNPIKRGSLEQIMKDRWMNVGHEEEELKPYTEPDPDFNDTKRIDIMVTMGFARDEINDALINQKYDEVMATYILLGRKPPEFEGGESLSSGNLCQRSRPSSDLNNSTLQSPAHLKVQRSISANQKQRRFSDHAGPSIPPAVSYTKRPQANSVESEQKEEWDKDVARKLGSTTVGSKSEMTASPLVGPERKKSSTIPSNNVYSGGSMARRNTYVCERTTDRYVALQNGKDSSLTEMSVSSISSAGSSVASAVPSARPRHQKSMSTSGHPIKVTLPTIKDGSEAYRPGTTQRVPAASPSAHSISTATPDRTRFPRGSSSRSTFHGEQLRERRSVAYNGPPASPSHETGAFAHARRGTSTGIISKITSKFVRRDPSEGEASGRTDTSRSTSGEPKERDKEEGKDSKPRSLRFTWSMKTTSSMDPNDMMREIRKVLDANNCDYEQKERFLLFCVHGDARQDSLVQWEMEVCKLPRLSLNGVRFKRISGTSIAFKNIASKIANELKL
UniProt Q7KZI7: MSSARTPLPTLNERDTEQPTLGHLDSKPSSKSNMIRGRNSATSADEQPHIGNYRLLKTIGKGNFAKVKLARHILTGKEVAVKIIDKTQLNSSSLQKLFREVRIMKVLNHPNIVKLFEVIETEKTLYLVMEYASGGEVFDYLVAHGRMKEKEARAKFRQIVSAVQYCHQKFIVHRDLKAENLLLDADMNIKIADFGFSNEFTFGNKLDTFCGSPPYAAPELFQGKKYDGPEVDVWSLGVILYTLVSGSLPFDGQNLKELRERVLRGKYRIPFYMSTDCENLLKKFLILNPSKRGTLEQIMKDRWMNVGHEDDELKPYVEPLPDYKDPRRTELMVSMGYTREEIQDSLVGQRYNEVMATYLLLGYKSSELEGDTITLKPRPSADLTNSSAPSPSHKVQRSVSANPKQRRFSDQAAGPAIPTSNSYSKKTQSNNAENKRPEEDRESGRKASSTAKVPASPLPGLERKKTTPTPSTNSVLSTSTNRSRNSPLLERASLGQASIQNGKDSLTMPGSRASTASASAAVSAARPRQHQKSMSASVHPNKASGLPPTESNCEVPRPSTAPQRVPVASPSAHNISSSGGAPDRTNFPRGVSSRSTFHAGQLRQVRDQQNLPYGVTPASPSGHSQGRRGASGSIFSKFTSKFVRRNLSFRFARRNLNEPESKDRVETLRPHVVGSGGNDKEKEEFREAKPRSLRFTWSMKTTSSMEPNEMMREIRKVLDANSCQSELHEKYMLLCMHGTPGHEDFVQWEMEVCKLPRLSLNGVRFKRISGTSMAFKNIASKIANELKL
FLAG-tagged MARK2 2–307 (N-terminal kinase domain of MARK2): residues 2-307 of Q7KZI7
FLAG-tagged MARK2 307–788 (C-terminus of MARK2, starting at the UBA domain): residues 307-788 of Q7KZI7
FLAG-tagged MARK3 (hMARK3 TV3) (P27448-3, form named): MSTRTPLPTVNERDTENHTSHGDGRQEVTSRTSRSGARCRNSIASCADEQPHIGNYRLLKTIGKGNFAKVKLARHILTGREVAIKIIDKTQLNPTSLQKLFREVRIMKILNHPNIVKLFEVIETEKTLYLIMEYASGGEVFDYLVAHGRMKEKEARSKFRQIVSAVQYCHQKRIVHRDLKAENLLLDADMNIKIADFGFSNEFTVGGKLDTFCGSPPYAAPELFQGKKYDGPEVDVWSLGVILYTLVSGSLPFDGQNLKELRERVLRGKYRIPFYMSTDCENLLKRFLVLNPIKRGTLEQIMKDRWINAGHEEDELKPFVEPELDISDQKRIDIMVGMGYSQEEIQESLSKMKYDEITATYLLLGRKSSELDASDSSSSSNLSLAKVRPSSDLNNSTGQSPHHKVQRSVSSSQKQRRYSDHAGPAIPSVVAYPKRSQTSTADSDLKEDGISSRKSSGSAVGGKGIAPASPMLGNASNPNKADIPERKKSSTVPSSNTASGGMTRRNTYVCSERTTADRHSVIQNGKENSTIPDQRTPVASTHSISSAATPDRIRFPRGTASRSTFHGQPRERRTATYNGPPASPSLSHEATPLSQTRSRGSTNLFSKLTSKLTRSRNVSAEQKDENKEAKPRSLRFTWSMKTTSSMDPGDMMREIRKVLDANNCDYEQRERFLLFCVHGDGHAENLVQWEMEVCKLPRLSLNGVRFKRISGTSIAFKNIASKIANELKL

Assay [1] addresses T1, FLAG-tagged CLASP1 (H. sapiens CLASP1 isoform 2) (human) (UniProt Q7Z460).
T1 sequence: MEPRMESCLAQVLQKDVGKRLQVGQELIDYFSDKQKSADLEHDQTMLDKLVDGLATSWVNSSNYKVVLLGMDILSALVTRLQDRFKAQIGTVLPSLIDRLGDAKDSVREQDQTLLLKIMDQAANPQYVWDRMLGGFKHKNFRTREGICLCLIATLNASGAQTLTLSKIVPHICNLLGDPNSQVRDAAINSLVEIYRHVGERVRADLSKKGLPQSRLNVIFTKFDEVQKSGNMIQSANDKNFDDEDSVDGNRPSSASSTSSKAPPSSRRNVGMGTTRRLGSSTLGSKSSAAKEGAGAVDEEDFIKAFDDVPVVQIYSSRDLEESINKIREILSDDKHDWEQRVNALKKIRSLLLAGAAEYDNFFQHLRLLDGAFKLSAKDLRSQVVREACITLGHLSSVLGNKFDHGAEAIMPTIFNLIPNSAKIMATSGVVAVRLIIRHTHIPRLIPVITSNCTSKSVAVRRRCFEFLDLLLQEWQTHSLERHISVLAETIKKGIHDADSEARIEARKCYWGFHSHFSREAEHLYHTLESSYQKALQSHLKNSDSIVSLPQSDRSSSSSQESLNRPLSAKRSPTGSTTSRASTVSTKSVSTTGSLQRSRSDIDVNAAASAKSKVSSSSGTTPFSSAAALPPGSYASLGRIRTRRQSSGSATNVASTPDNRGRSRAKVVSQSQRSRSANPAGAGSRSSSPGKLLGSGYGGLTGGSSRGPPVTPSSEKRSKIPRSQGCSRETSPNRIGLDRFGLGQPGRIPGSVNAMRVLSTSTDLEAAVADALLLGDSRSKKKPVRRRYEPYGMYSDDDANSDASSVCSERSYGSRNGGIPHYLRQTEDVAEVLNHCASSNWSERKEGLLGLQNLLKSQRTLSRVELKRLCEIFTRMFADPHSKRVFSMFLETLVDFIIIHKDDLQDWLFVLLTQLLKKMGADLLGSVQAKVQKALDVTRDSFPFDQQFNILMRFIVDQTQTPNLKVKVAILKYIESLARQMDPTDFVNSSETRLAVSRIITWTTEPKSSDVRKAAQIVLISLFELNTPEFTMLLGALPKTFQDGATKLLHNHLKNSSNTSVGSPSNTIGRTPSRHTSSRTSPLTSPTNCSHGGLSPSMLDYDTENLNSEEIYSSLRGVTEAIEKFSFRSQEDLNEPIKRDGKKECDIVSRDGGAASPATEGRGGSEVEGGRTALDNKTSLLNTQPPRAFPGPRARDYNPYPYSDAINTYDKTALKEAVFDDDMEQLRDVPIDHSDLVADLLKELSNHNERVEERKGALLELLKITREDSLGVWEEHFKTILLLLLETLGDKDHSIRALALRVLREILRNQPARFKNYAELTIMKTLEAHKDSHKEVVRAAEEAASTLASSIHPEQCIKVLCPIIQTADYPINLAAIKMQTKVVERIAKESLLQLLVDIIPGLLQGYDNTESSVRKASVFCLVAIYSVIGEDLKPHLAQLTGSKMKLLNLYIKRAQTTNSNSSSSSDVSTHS
Nature of the assay: co-IP; FLAG-tagged CLASP1 coexpressed with HA-tagged kinases in HEK293T; anti-FLAG M2 magnetic beads, 3xFLAG peptide elution; Western blot.

For assay [2], the target named is FLAG-tagged MARK1 (hMARK1 TV2) (human) (UniProt Q9P0L2). Nature of the assay: co-IP; FLAG-tagged kinase overexpressed in HEK293T, 1 h 1 μM Carfilzomib (in some panels DMSO or 10 μM Fsk for 1 h); lysis in 50 mM Tris, 150 mM NaCl, 10% glycerol, 1% Igepal, pH 8.0; anti-FLAG M2 magnetic beads, 3xFLAG peptide elution; endogenous CLASP1 and 14-3-3 detected by Western blot.

Assay [3] deals with FLAG-tagged MARK2 2–307 (N-terminal kinase domain of MARK2) (human) (UniProt Q7KZI7). Described as above.
Assay [4] deals with FLAG-tagged MARK2 (hMARK2 TV4, MAP/microtubule affinity-regulating kinase 2, 1–788) (human) (UniProt Q7KZI7). The assay is described as above.
The target in assay [5] is FLAG-tagged MARK3 (hMARK3 TV3) (human) (UniProt P27448). The assay is described as above.
The target in assay [6] is FLAG-tagged MARK2 307–788 (C-terminus of MARK2, starting at the UBA domain) (human) (UniProt Q7KZI7). Described as above.

Results are given in words; binding and its absence hold for the method and conditions named. Binding seen in cells or lysates may run through a third protein. Some entries that bind do so weakly or less than the wild type. For some of these results: Tags and fused reporters may be left off the sequences shown.

Take “HA-tagged MARK1 (hMARK1 TV2) (from UniProt Q9P0L2-1 1-795) (enzyme)”: the binding result in assay [1] is given as “binds”.

Take “HA-tagged MARK3 (hMARK3 TV3) (from UniProt P27448-3 1-729) (enzyme)”: the binding result in assay [1] was “binds”.

With “CLIP-associating protein 1 (CLASP1), endogenous (from UniProt Q7Z460 1-1538)”, the binding result in assay [2] was “binds”; in assay [3], “no binding”; in assay [4] it was “binds”; in assay [5] it was “binds”; in assay [6], “binds”.
